The other results are listed elsewhere or left out.
Assays:
Assay in all cases: glycan array binding signal (z-score within array); higher = stronger binding
Settings in all cases: glycan notation: IUPAC condensed, linker removed
[1] = molecular target: Gal(b1-4)GlcNAc(b1-2)Man(a1-6)[Man(a1-3)]Man(b1-4)GlcNAc(b1-4)GlcNAc
In short: (§1)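 From the Consortium for Functional Glycomics database, 3228 arrays were curated, keeping only those whose protein sequence was available. Binding is given as a within-array Z-score averaged across arrays sharing a protein sequence and across linkers. Negative Z-scores can be read as non-binding.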

[2] = molecular target: Gal(b1-4)GlcNAc(b1-2)[Gal(b1-4)GlcNAc(b1-4)]Man(a1-3)[Gal(b1-4)GlcNAc(b1-2)Man(a1-6)]Man(b1-4)GlcNAc(b1-4)GlcNAc
In short: as §1

[3] = molecular target: Gal(b1-4)GlcNAc(b1-2)[Gal(b1-4)GlcNAc(b1-4)]Man(a1-3)[Gal(b1-4)GlcNAc(b1-2)[Gal(b1-4)GlcNAc(b1-6)]Man(a1-6)]Man(b1-4)GlcNAc(b1-4)GlcNAc
In short: as §1

[4] = molecular target: Gal(b1-4)GlcNAc(b1-2)[Gal(b1-4)GlcNAc(b1-4)]Man(a1-3)[GlcNAc(b1-4)][Gal(b1-4)GlcNAc(b1-2)Man(a1-6)]Man(b1-4)GlcNAc(b1-4)GlcNAc
In short: as §1

[5] = molecular target: Gal(b1-4)GlcNAc(b1-2)[Gal(b1-4)GlcNAc(b1-4)]Man(a1-3)[GlcNAc(b1-4)][Gal(b1-4)GlcNAc(b1-2)[Gal(b1-4)GlcNAc(b1-6)]Man(a1-6)]Man(b1-4)GlcNAc(b1-4)GlcNAc
In short: as §1

[6] = molecular target: Gal(b1-4)GlcNAc(b1-2)[Gal(b1-4)GlcNAc(b1-6)]Man(a1-6)[Gal(b1-4)GlcNAc(b1-2)Man(a1-3)]Man(b1-4)GlcNAc(b1-4)GlcNAc
In short: as §1

[7] = molecular target: Gal(b1-4)GlcNAc(b1-2)[Gal(b1-4)GlcNAc(b1-6)]Man(a1-6)[Gal(b1-4)GlcNAc(b1-2)Man(a1-3)]Man(b1-4)GlcNAc(b1-4)[Fuc(a1-6)]GlcNAc
In short: as §1

[8] = molecular target: Gal(b1-4)GlcNAc(b1-2)[Gal(b1-4)GlcNAc(b1-6)]Man(a1-6)[GlcNAc(b1-4)][Gal(b1-4)GlcNAc(b1-2)Man(a1-3)]Man(b1-4)GlcNAc(b1-4)GlcNAc
In short: as §1

[9] = molecular target: Gal(b1-4)GlcNAc(b1-2)[Gal(b1-4)GlcNAc(b1-6)]Man(a1-6)[GlcNAc(b1-4)][Gal(b1-4)GlcNAc(b1-2)[Gal(b1-4)GlcNAc(b1-4)]Man(a1-3)]Man(b1-4)GlcNAc(b1-4)[Fuc(a1-6)]GlcNAc
In short: as §1

[10] = molecular target: Gal(b1-4)GlcNAc(b1-3)Gal(b1-3)GalNAc
In short: as §1

[11] = molecular target: Gal(b1-4)GlcNAc(b1-3)Gal(b1-3)GlcNAc
In short: as §1

[12] = molecular target: Gal(b1-4)GlcNAc(b1-3)Gal(b1-4)Glc
In short: as §1

[13] = molecular target: Gal(b1-4)GlcNAc(b1-3)Gal(b1-4)GlcNAc
In short: as §1

[14] = molecular target: Gal(b1-4)GlcNAc(b1-3)Gal(b1-4)GlcNAc(b1-2)Man(a1-3)[Gal(b1-4)GlcNAc(b1-3)Gal(b1-4)GlcNAc(b1-2)Man(a1-6)]Man(b1-4)GlcNAc(b1-4)GlcNAc
In short: as §1

[15] = molecular target: Gal(b1-4)GlcNAc(b1-3)Gal(b1-4)GlcNAc(b1-2)Man(a1-3)[Gal(b1-4)GlcNAc(b1-3)Gal(b1-4)GlcNAc(b1-2)Man(a1-6)]Man(b1-4)GlcNAc(b1-4)[Fuc(a1-6)]GlcNAc
In short: as §1

[16] = molecular target: Gal(b1-4)GlcNAc(b1-3)Gal(b1-4)GlcNAc(b1-2)[Gal(b1-4)GlcNAc(b1-3)Gal(b1-4)GlcNAc(b1-6)]Man(a1-6)[Gal(b1-4)GlcNAc(b1-3)Gal(b1-4)GlcNAc(b1-2)Man(a1-3)]Man(b1-4)GlcNAc(b1-4)GlcNAc
In short: as §1

[17] = molecular target: Gal(b1-4)GlcNAc(b1-3)Gal(b1-4)GlcNAc(b1-2)[Gal(b1-4)GlcNAc(b1-3)Gal(b1-4)GlcNAc(b1-6)]Man(a1-6)[Gal(b1-4)GlcNAc(b1-3)Gal(b1-4)GlcNAc(b1-2)Man(a1-3)]Man(b1-4)GlcNAc(b1-4)[Fuc(a1-6)]GlcNAc
In short: as §1

[18] = molecular target: Gal(b1-4)GlcNAc(b1-3)Gal(b1-4)GlcNAc(b1-3)Gal(b1-4)GlcNAc
In short: as §1

[19] = molecular target: Gal(b1-4)GlcNAc(b1-3)Gal(b1-4)GlcNAc(b1-3)Gal(b1-4)GlcNAc(b1-2)Man(a1-3)[Gal(b1-4)GlcNAc(b1-3)Gal(b1-4)GlcNAc(b1-3)Gal(b1-4)GlcNAc(b1-2)Man(a1-6)]Man(b1-4)GlcNAc(b1-4)GlcNAc
In short: as §1

[20] = molecular target: Gal(b1-4)GlcNAc(b1-3)Gal(b1-4)GlcNAc(b1-3)Gal(b1-4)GlcNAc(b1-2)Man(a1-3)[Gal(b1-4)GlcNAc(b1-3)Gal(b1-4)GlcNAc(b1-3)Gal(b1-4)GlcNAc(b1-2)Man(a1-6)]Man(b1-4)GlcNAc(b1-4)[Fuc(a1-6)]GlcNAc
In short: as §1

[21] = molecular target: Gal(b1-4)GlcNAc(b1-3)Gal(b1-4)GlcNAc(b1-3)Gal(b1-4)GlcNAc(b1-2)[Gal(b1-4)GlcNAc(b1-3)Gal(b1-4)GlcNAc(b1-3)Gal(b1-4)GlcNAc(b1-6)]Man(a1-6)[Gal(b1-4)GlcNAc(b1-3)Gal(b1-4)GlcNAc(b1-3)Gal(b1-4)GlcNAc(b1-2)Man(a1-3)]Man(b1-4)GlcNAc(b1-4)[Fuc(a1-6)]GlcNAc
In short: as §1

[22] = molecular target: Gal(b1-4)GlcNAc(b1-3)Gal(b1-4)GlcNAc(b1-3)Gal(b1-4)GlcNAc(b1-3)Gal(b1-4)GlcNAc(b1-2)Man(a1-3)[Gal(b1-4)GlcNAc(b1-3)Gal(b1-4)GlcNAc(b1-3)Gal(b1-4)GlcNAc(b1-3)Gal(b1-4)GlcNAc(b1-2)Man(a1-6)]Man(b1-4)GlcNAc(b1-4)GlcNAc
In short: as §1

B1: AidA (Burkholderia cenocepacia) (protein)
chain: MSRVTDVLVSFDTETILKKYPNPSKNPAAPTLIDWRYVYMVTNQDNVISGQAGGELDLKAQVGDLIRWRETSLSLGFENQVVFYKFIGNVGNDLISTPTPRVAEASIPVPNTSKPEVPTCQKVANYYWSSECLKVGRVTYHFQFQIIDRNCQSQGCFSWDPFISIHN
[1]
  glycan array binding signal (z-score): 0.226
[2]
  glycan array binding signal (z-score): -0.348
[3]
  glycan array binding signal (z-score): -0.099
[4]
  glycan array binding signal (z-score): 0.232
[5]
  glycan array binding signal (z-score): -0.107
[6]
  glycan array binding signal (z-score): -0.177
[7]
  glycan array binding signal (z-score): 0.594
[8]
  glycan array binding signal (z-score): -0.373
[9]
  glycan array binding signal (z-score): -0.272
[10]
  glycan array binding signal (z-score): -0.284
[11]
  glycan array binding signal (z-score): -0.217
[12]
  glycan array binding signal (z-score): -0.342
[13]
  glycan array binding signal (z-score): -0.768
[14]
  glycan array binding signal (z-score): 0.201
[15]
  glycan array binding signal (z-score): 0.036
[16]
  glycan array binding signal (z-score): -0.138
[17]
  glycan array binding signal (z-score): -0.526
[18]
  glycan array binding signal (z-score): -0.034
[19]
  glycan array binding signal (z-score): 0.838
[20]
  glycan array binding signal (z-score): 1.44
[21]
  glycan array binding signal (z-score): 0.753
[22]
  glycan array binding signal (z-score): 0.459

Source: the supplement of paper PMC8728848
